B1: kdsB I46A (protein)
chain: MSFVVIIPARYASTRLPGKPLVDINGKPMIVHVLERARESGAERIAVATDHEDVARAVEAAGGEVCMTRADHQSGTERLAEVVEKCAFSDDTVIVNVQGDEPMIPATIIRQVADNLAQRQVGMATLAVPIHNAEEAFNPNAVKVVLDAEGYALYFSRATIPWDRDRFAEGLETVGDNFLRHLGIYGYRAGFIRRYVNWQPSPLEHIEMLEQLRVLWYGEKIHVAVAQEVPGTGVDTPEDLERVRAEMR
B2: kdsB V95A (protein)
chain: B1 chain with A46I, V95A
B3: kdsB I30A (protein)
chain: B1 chain with I30A, A46I
B4: kdsB V83Q (protein)
chain: B1 chain with A46I, V83Q
B5: kdsB V83D (protein)
chain: B1 chain with A46I, V83D
B6: kdsB V83W (protein)
chain: B1 chain with A46I, V83W
B7: kdsB I46Q (protein)
chain: B1 chain with A46Q
B8: kdsB V83A (protein)
chain: B1 chain with A46I, V83A
B9: leuA I194A (protein)
chain: MSQQVIIFDTTLRDGEQALQASLSVKEKLQIALALERMGVDVMEVGFPVSSPGDFESVQTIARQVKNSRVCALARCVEKDIDVAAESLKVAEAFRIHTFIATSPMHIATKLRSTLDEVIERAIYMVKRARNYTDDVEFSCEDAGRTPIADLARVVEAAINAGATTINIPDTVGYTMPFEFAGIISGLYERVPNADKAIISVHTHDDLGLAVGNSLAAVHAGARQVEGAMNGIGERAGNCSLEEVIMAIKVRKDILNVHTAINHQEIWRTSQLVSQICNMPIPANKAIVGSGAFAHSSGIHQDGVLKNRENYEIMTPESIGLNQIQLNLTSRSGRAAVKHRMDEMGYKESEYNLDNLYDAFLKLADKKGQVFDYDLEALAFIGKQQEEPEHFRLDYFSVQSGSNDIATAAVKLACGEEVKAEAANGNGPVDAVYQAINRITEYNVELVKYSLTAKGHGKDALGQVDIVANYNGRRFHGVGLATDIVESSAKAMVHVLNNIWRAAEVEKELQRKAQHNENNKETV
B10: leuA I194W (protein)
chain: B9 chain with A194W
B11: leuA I194Q (protein)
chain: B9 chain with A194Q
B12: leuA I194D (protein)
chain: B9 chain with A194D
B13: leuA I194P (protein)
chain: B9 chain with A194P

Residue numbers refer to the chain shown, from its start. Names may count otherwise. ± gives the standard deviation of the averaged measurements. Laboratory Escherichia coli strains with one amino-acid change in an essential protein, pooled on minimal glucose agar with carbenicillin or gentamicin at twice the control MIC (plus kanamycin and chloramphenicol for the plasmids), 48 h. Fold change of barcode share against drug-free plates; higher = less susceptible. Active = above 20 in both replicates (the paper's putatively resistant). '<' = one read or none on drug, '>' = one read or none on a drug-free plate. Shares are relative, so most strains fall below 1 when a few take over. Listed are strains with at least 15 reads on both drug-free plates, and hits; most hits rest on fewer reference reads. Replicate rank correlation about 0.5. Edits are read from barcodes.

One data set addresses Escherichia coli (laboratory strain). In words: barcode share on antibiotic plates over drug-free plates; higher = less susceptible. The following applies: antibiotic: carbenicillin; 2× MIC (3.1 µg/mL). How it is done: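 A pool of E. coli strains, each edited to carry one amino-acid change in an essential protein, was grown for 48 h on minimal glucose agar with or without antibiotic; strain barcodes were sequenced; mean of two replicates.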
In the case of B1, the “fold change of barcode share” value was determined as 0.264 ± 0.19.
In the case of B2, the “fold change of barcode share” value is 0.704 ± 0.47.
Same read-out and setting: the figure for B3 is 0.238 ± 0.1; for B4 it is 0.287 ± 0.02; for B5 it is 0.422 ± 0.23.
Same read-out and setting: the figure for B6 is 0.287 ± 0.025; for B7 it is 0.4 ± 0.059.
On the same count and under the same terms, next, B8: 0.354 ± 0.014; B9: 0.497 ± 0.11; B10: 0.96 ± 0.14.
As to B11, the “fold change of barcode share” value came to 0.473 ± 0.039.
The same measure, in the same setting: the figure for B12 is 0.538 ± 0.059; for B13 it is 0.467 ± 0.11.

Staying with this data set, now noted: antibiotic: gentamicin; 2× MIC (MIC 0.45 µg/mL).
As to B1, the “fold change of barcode share” value was less than 0.00728.
Same read-out and setting: next, B2: less than 0.0062; B3: less than 0.00844; B4: 0.00804 ± 0.0042.
Still for that read-out and setting: the figure for B5 is 0.122 ± 0.17.
Still for that read-out and setting: next, B6: less than 0.00303; B7: less than 0.0109; B8: less than 0.00339.
Consider B9, for which the “fold change of barcode share” value is less than 0.00331.
Same read-out and setting: next, B10: 0.00708 ± 0.0046; B11: less than 0.00349; B12: 0.0177 ± 0.017.
On the same count and under the same terms, the figure for B13 is less than 0.00312.

Source of the values: the supplement of paper PMC11876631.
